{"source": "PubChem BioAssay AID686979", "about": "(National Center for Advancing Translational Sciences (NCATS), 2013)", "note": "Values joined by “and” are separate entries in the source; they are usually repeats but may differ in a detail not shown here. Equal values may be shown once. In all, about 420,000 compounds went through this assay and about 50,000 (12%) were called active. The inconclusive results got no clear call from the source; some entries with a clear call stand among them for comparison. Calls come from the whole dose curve; as a rule, active = well fitted inhibition curve with a large enough effect; inconclusive = small, poorly fitted or top-dose-only effect; inactive = flat fitted curve, though single readings scatter. Potencies of inconclusive entries are doubtful fits and often do not repeat. % is set by controls: 0 for no effect and ±100 for the full control effect; potency is the fitted concentration of half-maximal effect; tags give direction and shape of the fitted curve."}
{"test": "qHTS for Inhibitors of human tyrosyl-DNA phosphodiesterase 1 (TDP1): qHTS in cells in presence of CPT; note: nearly all actives have a fitted effect of over 55% in size", "conditions": "chicken DT40 Tdp1-/-;hTDP1 cells + 20 nM CPT, ATP luminescence, 48 h; activity change, negative = growth inhibition: at 46.2 µM (top of the series)", "how_it_was_run": "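Cell growth measured by CellTiter-Glo luminescence after a minimum 48 h, 37 C compound exposure with 20 nM CPT in Tdp1-knockout DT40 cells stably expressing hTDP1, seeded 400/well; qHTS titration format.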"}
{"smiles": "Cc1cc(C(=O)NCCN2Cc3ccccc3OC(c3ccccc3F)C2)no1", "note": "(configuration not stated)", "activity change, negative = growth inhibition": "inactive: -3.97% [at 9.04 µM]"}
{"smiles": "CN(C)c1ccc(N/C=C/C(=O)c2ccccc2)cc1", "Potency": "active: 11.2 µM"}
{"smiles": "CCN(Cc1cnn(C)c1)C(=O)c1ccc2nc(Cc3cccc(Cl)c3)oc2c1", "Potency": "active: 23.1 µM"}
{"smiles": "Cc1ccc(-c2nnc(Nc3ccc(CC(N)=O)cc3)c3ccccc23)cc1S(N)(=O)=O", "Potency": "inactive"}
{"smiles": "Cc1ccc(S(=O)(=O)N2CCC(C(=O)NCc3ccccc3CN3CCCC3)CC2)cc1", "Potency": "inconclusive: 13 µM [inhibitor, partial curve, poor fit]"}
{"smiles": "Cc1ccc(-c2nc(SCC(=O)NCC3CCCO3)c(-c3ccccc3)[nH]2)cc1", "note": "(configuration not stated)", "Potency": "inconclusive: 29.1 µM [inhibitor, single point]"}
{"smiles": "Cc1ccc(N2C(=O)c3ccccc3C2=O)nc1", "Potency": "inactive"}
{"smiles": "Cc1cc(C)cc(OCC(=O)OCC(=O)NC2CCCC2)c1", "Potency": "inactive"}
{"smiles": "Cn1cccc1CC(=O)NNC(=O)Nc1ccccc1F", "Potency": "inactive"}
{"smiles": "CCc1ccc(-n2c(=O)c3ccccc3n(CC(=O)C(C)(C)C)c2=O)cc1", "Potency": "inconclusive: 11.6 µM [inhibitor, partial curve]"}
{"smiles": "COc1ccc(-c2nc(C(=O)NCC3CCCO3)cc3c2[nH]c2ccccc23)cc1", "note": "(configuration not stated)", "Potency": "active: 2.06 µM"}
{"smiles": "COc1ccc(C(=O)n2nc(-c3ccco3)nc2NCc2cccs2)cc1", "Potency": "inconclusive: 29.1 µM [inhibitor, single point]"}
{"smiles": "C=Cc1ccc(CN2C(=O)N(c3cccc(Cl)c3)S(=O)(=O)c3ccccc32)cc1", "Potency": "active: 11.6 µM"}
{"smiles": "C=CCn1c(SCC(=O)NCC(c2ccccc2)N(C)C)nc2sc3c(c2c1=O)CCC3", "note": "(configuration not stated)", "Potency": "inactive"}
{"smiles": "Cc1ccc2c(C(=O)CN3CCN(C4CCCCC4)CC3)c(C)[nH]c2c1", "Potency": "inactive"}
{"smiles": "COc1ccc(NC(=O)C(OC(=O)c2ccc([N+](=O)[O-])o2)c2ccccc2)cc1Cl", "note": "(configuration not stated)", "Potency": "inconclusive: 8.2 µM [inhibitor, partial curve, poor fit]"}
{"smiles": "Cc1cccc(NC(=O)c2ccc(COc3ccccc3[N+](=O)[O-])o2)n1", "Potency": "inactive"}
{"smiles": "COc1cc(C)c2c(=O)cc(-c3ccccc3)oc2c1", "Potency": "inconclusive: 23.1 µM [inhibitor, single point]"}
{"smiles": "COCc1[nH][nH]c(=O)c1C=NCC(=O)OC", "Potency": "inactive"}
{"smiles": "N#Cc1ccc(CSc2ccccn2)c(Cl)c1", "Potency": "inactive"}
{"smiles": "CCCCN1CCCc2cc(CN(CCCN3CCOCC3)C(=O)Nc3ccc(OCC)cc3)ccc21", "Potency": "active: 18.4 µM"}
{"smiles": "Nc1cccc2nsnc12", "Potency": "inactive"}
{"smiles": "Clc1ccc(C(c2nnnn2C2CCCC2)N2CCSCC2)cc1", "note": "(configuration not stated)", "Potency": "inactive"}
{"smiles": "O=C(NCCc1ccccn1)c1cc(-c2cccc3ccccc23)nc2ccccc12", "Potency": "active: 25.9 µM"}
{"smiles": "Cn1c(N=Nc2ccccc2)nc2ccccc21", "Potency": "active: 8.2 µM"}
{"smiles": "CCc1ccc(C(=O)c2cnc3ccc(OC)cc3c2N2CCN(CC)CC2)cc1", "Potency": "inconclusive: 29.1 µM [inhibitor, single point]"}
{"smiles": "CC1CN(c2nc3c(c(=O)n(Cc4ccc(Cl)c(Cl)c4)c(=O)n3C)n2C)CC(C)O1", "note": "(configuration not stated)", "Potency": "inconclusive: 29.1 µM [inhibitor, single point]"}
{"smiles": "CCCn1nc2cc(C(=O)NCc3ccc(C)cc3)ccc2c1OC", "Potency": "inconclusive: 0.0366 µM [inhibitor, full curve, poor fit]"}
{"smiles": "CC(C)(C)c1ccc(C(=O)N2CCC(C(=O)c3ccccc3)CC2)cc1", "Potency": "active: 18.4 µM"}
{"smiles": "CC1CCCN(CCCOc2ccc(Br)cc2Cl)C1", "note": "(configuration not stated)", "Potency": "inconclusive: 29.1 µM [inhibitor, single point]"}
{"smiles": "CCOC(=O)C1(Cc2ccccc2)CCCN(Cc2ccc(OCC)c(CO)c2)C1", "note": "(configuration not stated)", "Potency": "inconclusive: 29.1 µM [inhibitor, single point]"}
{"smiles": "O=C1C=CCC(/C=C/c2ccccc2)O1", "note": "(configuration not stated)", "Potency": "active: 2.31 µM"}
{"smiles": "Cc1ccc(C(=O)N/N=C\\c2cccc(OC(=O)c3cccc(F)c3)c2)cn1", "Potency": "inconclusive: 25.9 µM [inhibitor, single point]"}
{"smiles": "O=C(N/N=C/C1CC2C=CC1C2)c1ccccc1O", "note": "(configuration not stated)", "Potency": "inactive"}
{"smiles": "CC1(C(=O)Nc2nccs2)CCN1C(=O)CC(c1ccccc1)c1ccccc1", "note": "(configuration not stated)", "Potency": "active: 16.4 µM"}
{"smiles": "CCc1ccc(-c2nc(CS(=O)CC(=O)NCCN3CCCCCC3)c(C)o2)cc1", "note": "(configuration not stated)", "Potency": "inconclusive: 20.6 µM [inhibitor, single point]"}
{"smiles": "CC(C)CN1CCC(=O)N([C@H](COc2ccccc2)c2ccccc2)CC1", "Potency": "inconclusive: 35.5 µM [inhibitor, single point] and inconclusive: 29.1 µM [inhibitor, single point]"}
{"smiles": "CN(C)CCCC(C)(O)C(Cc1ccccc1)c1ccccc1", "note": "(configuration not stated)", "activity change, negative = growth inhibition": "inconclusive: -30% [inhibitor]"}
{"smiles": "CN(C)c1ccc(C=Cc2ccnc3ccccc23)cc1N", "Potency": "active: 10.3 µM"}
{"smiles": "O=C(NCCc1c[nH]c2ccccc12)c1ccc([N+](=O)[O-])o1", "Potency": "active: 14.6 µM"}
{"smiles": "O=C(Nc1nc2ccccc2n1Cc1ccc(Cl)cc1)c1ccco1", "Potency": "inconclusive: 14.6 µM [inhibitor, partial curve]"}
{"smiles": "O=C(CN1C(=O)/C(=C/c2cccc(Cl)c2)SC1=S)NC1C=CS(=O)(=O)C1", "note": "(configuration not stated)", "Potency": "inconclusive: 18.4 µM [inhibitor, partial curve]"}
{"smiles": "CCN(C(=O)c1cc2c(s1)-c1ccccc1OC2)c1cc(Cl)ccc1OC", "Potency": "active: 20.6 µM"}
{"smiles": "COc1cc(OC)cc(-c2ncc3ccccn23)c1", "Potency": "inconclusive: 23.1 µM [inhibitor, single point]"}
{"smiles": "Cc1cccc(C(=O)N2CCC(=O)N(C(COCc3ccc(Cl)cc3)Cc3ccccc3)CC2)c1", "note": "(configuration not stated)", "Potency": "active: 20.6 µM"}
{"smiles": "COc1ccc(C(=O)N(c2ccc(OC)cc2)S(=O)(=O)c2cccs2)cc1", "Potency": "inconclusive: 18.4 µM [inhibitor, single point]"}
{"smiles": "CC1(C(=O)Nc2cccc3ccccc23)CCN1C(=O)C1(c2ccccc2)CCCC1", "note": "(configuration not stated)", "Potency": "inconclusive: 29.1 µM [inhibitor, single point]"}
{"smiles": "COc1nccnc1NS(=O)(=O)c1ccc(N=Cc2c(C)[nH]n(-c3ccccc3)c2=O)cc1", "Potency": "inactive"}
{"smiles": "COC(=O)C1C(=O)c2c([nH]c(C(=O)OC3CCCCCC3)c2C)CC1C", "note": "(configuration not stated)", "Potency": "inconclusive: 23.1 µM [inhibitor, single point]"}
{"smiles": "COCCc1ncc(CN2CCCC(C(=O)Nc3cccc(-c4cccc(C)c4)c3)C2)cn1", "note": "(configuration not stated)", "Potency": "inconclusive: 18.4 µM [inhibitor, single point]"}
{"smiles": "COc1ccc(C(c2nnnn2C2CCCC2)N2CCN(C/C=C/c3ccccc3)CC2)cc1", "note": "(configuration not stated)", "Potency": "inconclusive: 29.1 µM [inhibitor, single point]"}
{"smiles": "O=C(c1ccccc1)N1CCN(c2ccccc2F)CC1", "Potency": "inactive"}
{"smiles": "Cc1ccc(Nc2nc(N)nc(CN3CCN(Cc4ccc5c(c4)OCO5)CC3)n2)c(C)c1", "Potency": "inconclusive: 29.1 µM [inhibitor, single point]"}
{"smiles": "CC1Cc2cc(S(=O)(=O)NCc3ccccc3Cl)ccc2N1C(=O)C1CCC1", "note": "(configuration not stated)", "Potency": "active: 14.6 µM"}
{"smiles": "COc1cc(/C=C2\\SC(=N)N(c3ccc(F)cc3)C2=O)ccc1O", "Potency": "active: 25.9 µM"}
{"smiles": "COc1ccc2[nH]c(=O)c(CNc3cccc(C)c3)cc2c1", "Potency": "active: 13 µM"}
{"smiles": "O=C(Cn1nnc(-c2ccc(Cl)cc2)n1)NC(=O)NC1CCCC1", "Potency": "inactive"}
{"smiles": "Cc1cc(C)n2nc(SCC(=O)NC3CCCCC3C)nc2n1", "note": "(configuration not stated)", "Potency": "inactive"}
{"smiles": "CN1CCC(C)(C(=O)Nc2cccc(Oc3ccccc3)c2)C1", "note": "(configuration not stated)", "Potency": "inactive"}
{"smiles": "C=CCOc1ccc2nc(NC(=O)OC)[nH]c2c1", "Potency": "active: 0.651 µM"}
{"smiles": "C=C1CCN([C@@H](Cc2ccccc2)C(=O)NCc2ccccc2)S(=O)(=O)c2ccccc21", "Potency": "inactive"}
{"smiles": "O=C(COC(=O)c1ccc(Cl)cc1O)NC(=O)C1CCCCC1", "Potency": "inactive"}
{"smiles": "O=S(=O)(NCCS(=O)(=O)N1CCN(c2ccccc2F)CC1)c1ccc(Cl)cc1", "Potency": "inconclusive: 9.2 µM [inhibitor, partial curve]"}
{"smiles": "Cc1cccc(N2CCN(C(=O)C3CCCN(S(=O)(=O)c4cnc[nH]4)C3)CC2C)c1", "note": "(configuration not stated)", "Potency": "inconclusive: 29.1 µM [inhibitor, single point]"}
{"smiles": "NC(=O)c1cccc(S(=O)(=O)N2CCCCC2)c1", "Potency": "inactive"}
{"smiles": "COc1ccc(-n2c(NCCN(C)C)nc3sc4c(c3c2=O)CCCCC4)cc1", "Potency": "inconclusive: 23.1 µM [inhibitor, single point]"}
{"smiles": "Cc1ccc(C)c(C(O)c2ncc(-c3ccc4ccccc4c3)[nH]2)c1", "note": "(configuration not stated)", "Potency": "active: 18.4 µM"}
{"smiles": "CCCCc1ccccc1NC(=S)NC1CCCC1", "Potency": "inconclusive: 29.1 µM [inhibitor, partial curve, poor fit]"}
{"smiles": "CC1(c2nnnn2Cc2ccccc2)CCC(=O)N1Cc1ccco1", "note": "(configuration not stated)", "Potency": "inactive"}
{"smiles": "CCN(CC)c1ccc(C(=O)N2CCC(c3c[nH]c4ccccc34)(c3c[nH]c4ccccc34)CC2)cc1", "Potency": "inconclusive: 23.1 µM [inhibitor, single point]"}
{"smiles": "CC(NC(=O)Nc1cc(Cl)ccc1Cl)c1c(-n2cccc2)sc2c1CCCC2", "note": "(configuration not stated)", "Potency": "inconclusive: 29.1 µM [inhibitor, single point]"}
{"smiles": "COc1ccc(C(C)=NOC(=O)c2c(-c3ccccc3Cl)noc2C)cc1CN1CCOCC1", "Potency": "inconclusive: 23.1 µM [inhibitor, single point]"}
{"smiles": "CCOc1ccc(S(=O)(=O)N2CCCC2)c2ccccc12", "Potency": "inconclusive: 25.9 µM [inhibitor, single point]"}
{"smiles": "Cc1cnc(NC(=O)c2ccc(Cl)nc2)s1", "Potency": "inactive"}
{"smiles": "O=C(CNC(=O)c1ccc(OC(F)F)cc1)NCC1(N2CCOCC2)CCCCC1", "Potency": "inactive"}
{"smiles": "Cc1ccc(-c2nc(-c3cc4cccc(OCc5cccc(C)c5)c4oc3=O)no2)cc1", "Potency": "inconclusive: 29.1 µM [inhibitor, single point]"}
{"smiles": "COc1ccc(-c2nc3ccc(Br)cn3c2Cc2cccc(Cl)c2)cc1OC", "Potency": "inconclusive: 29.1 µM [inhibitor, single point]"}
